This is an account of results in PubChem BioAssay AID488969 (Vanderbilt High Throughput Screening Facility, 2010).

Whole data set: some 110,000 compounds, median “z-score” near -0.1, cut for the highest 2% near 2. Some of the results follow.

The target in this assay is Metabotropic glutamate receptor 8 (Rattus norvegicus) (UniProt P70579). As to the kind of experiment: rat mGluR8 modulators via GIRK flux, primary screen, cell-based, thallium flux, HTS (AID 488969). The following applies: HEK293 rat mGluR8, GIRK (G protein-gated inwardly rectifying potassium channel) thallium flux, FluoZin2; at 10 µM; stronger effect = higher value; submaximal glutamate (EC20) added with thallium.
Sequence of UniProt P70579 (P70579 whole entry, looked up): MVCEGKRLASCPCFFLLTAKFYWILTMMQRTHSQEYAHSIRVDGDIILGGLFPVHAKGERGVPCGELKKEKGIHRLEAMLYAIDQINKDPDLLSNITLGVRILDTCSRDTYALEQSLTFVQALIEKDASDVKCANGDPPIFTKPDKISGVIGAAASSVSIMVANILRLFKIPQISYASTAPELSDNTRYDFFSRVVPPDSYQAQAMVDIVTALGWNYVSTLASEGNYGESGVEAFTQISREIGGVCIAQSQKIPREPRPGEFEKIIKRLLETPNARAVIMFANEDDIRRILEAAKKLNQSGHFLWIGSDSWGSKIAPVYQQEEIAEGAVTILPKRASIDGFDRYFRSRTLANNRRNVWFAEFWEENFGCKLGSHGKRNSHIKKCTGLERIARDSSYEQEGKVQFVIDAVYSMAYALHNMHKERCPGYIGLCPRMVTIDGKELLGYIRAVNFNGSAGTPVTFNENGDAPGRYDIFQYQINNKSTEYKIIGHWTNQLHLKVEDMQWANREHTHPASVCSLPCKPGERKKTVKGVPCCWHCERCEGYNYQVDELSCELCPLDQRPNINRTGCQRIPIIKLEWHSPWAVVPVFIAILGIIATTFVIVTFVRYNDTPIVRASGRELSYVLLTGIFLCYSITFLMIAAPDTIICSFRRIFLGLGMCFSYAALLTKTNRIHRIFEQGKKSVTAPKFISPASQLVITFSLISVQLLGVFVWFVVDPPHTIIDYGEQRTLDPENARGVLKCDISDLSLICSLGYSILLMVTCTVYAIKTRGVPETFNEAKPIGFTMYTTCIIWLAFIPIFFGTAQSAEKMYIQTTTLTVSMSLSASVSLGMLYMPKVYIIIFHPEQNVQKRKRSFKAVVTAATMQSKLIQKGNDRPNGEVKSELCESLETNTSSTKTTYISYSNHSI
Take `CCOc1ccccc1CNS(=O)(=O)c1ccc2c(c1)oc(=O)n2C`: the z-score is -0.853.

In the case of `CC1Cc2ccccc2N1C(=O)CSc1nnc(CNc2ccccc2)o1` (centres undefined), the z-score is -0.151. With `COc1ccc(C(=O)NNC(=O)c2ccccn2)cc1`, the z-score was -0.0844.

Take `CCSc1nnc(NC(=O)c2cccc(S(=O)(=O)N(C)c3ccccc3)c2)s1`: the z-score was -0.44.

As to `CCCCCc1nc2ccccc2c(=O)n1NC(=O)c1c(O)c2cccc3c2n(c1=O)CCC3`, the z-score is 0.392.

As to `Cc1c(C2(O)C(=O)Nc3ccc(F)cc32)c(=O)n(-c2ccccc2)n1C` (centres undefined), the z-score amounted to 0.42. `c1ccc2c(c1)oc1c(Nc3ccc4c(c3)OCO4)ncnc12`: the z-score amounted to 0.0202.

Regarding `COc1cc(/C=N/NC(N)=S)ccc1OCC(=O)Nc1ccc(C)c(C)c1`, the z-score is -0.102. With `CCCc1cc(=O)[nH]c(SCC(=O)N2CCN(S(=O)(=O)c3ccc(C)cc3C)CC2)n1` the figure was 0.128; with `Cc1ccc(OCC(=O)NNC(=O)CSc2nnc(-c3ccc(C)cc3)n2C)cc1`, 0.0512. As for `O=C(Nc1ccccc1C(=O)Nc1ccc2c(c1)OCO2)c1cccs1`, the figure is 0.573; as for `Cc1sc2ncnc(SCC(=O)NC(=O)NCc3ccco3)c2c1C`, 2.66; as for `COC(=O)N/N=C/c1cn(Cc2ccc(Cl)cc2Cl)c2ccccc12`, -0.119. With `CCn1ncc(Br)c1C(=O)Nc1ccc(F)cc1F` the figure was 1.02; with `CC1CC(C)(C)N2C(=O)C3(Nc4ccccc4S3)c3cccc1c32` (centres undefined), -0.401; with `Cn1c(=O)c2c(nc(CN3CCc4ccccc4C3)n2Cc2ccc(Cl)cc2)n(C)c1=O`, 0.185. Compound `COc1ccccc1C1CN=NC12CCCc1ccccc1C2=O` (centres undefined) displayed a z-score of 0.0169. With `CC(=O)/C(=N/Nc1cccc(Cl)c1)N1CCOCC1` the figure was -0.211. With `CCc1nc2ccc(C(=O)Nc3cccc(C(C)=O)c3)cc2nc1CC` the figure was -0.283.

Compound `Cc1nc2c(C(=O)NCc3cccs3)cnn2c(C)c1Cc1ccc(F)cc1` showed a z-score of -0.267. With `COC(=O)C1CCN(CC(N)=O)CC1` the figure was -0.348; with `CC1(C)CC(=O)C2=C(C1)C(c1cn(-c3ccccc3)nc1-c1ccccc1)C(C#N)=C(N)O2` (centres undefined), -0.419. `O=C(Nc1ccc(N2C(=O)C3C4C=CC(C4)C3C2=O)cc1)Nc1nnc(C(F)(F)F)s1` (centres undefined) returned a z-score of 0.0495. As for `Cc1c(Cl)cccc1NC(=O)C1Cc2ccccc2CN1C(=O)c1ccccc1` (centres undefined), the figure is -0.428; as for `CCc1ccc(N2C(=O)C(Cl)=C(N3CCOCC3)C2=O)cc1`, -0.428. As for `O=C(c1ccc2c(c1)OCCO2)C1CCN(C(=O)c2ccc(F)cc2)CC1`, the figure is -0.759; as for `Cc1nn(C)c(C(=O)NNC(=S)NCc2ccco2)c1Cl`, 0.7. In turn, `O=C(CCCN1C(=O)/C(=C\c2cccs2)SC1=S)Nc1cccnc1` returned a z-score of -0.171. With `CCc1nc(SCC(=O)c2cccs2)c2oc3ccccc3c2n1` the figure was 0.0688; with `CC(=O)Nc1ccc(S(=O)(=O)NCC2CCC(C(=O)NCCC3=CCCCC3)CC2)cc1` (centres undefined), -0.553. As for `COC(=O)C(O)(CC(=O)Nc1cccc(SC)c1)C(F)(F)F` (centres undefined), the figure is 0.0313; as for `COC(=O)c1c(NC(=O)Cc2ccccc2)sc(C)c1C`, -0.12; as for `CNC(=O)c1cc2cc(OC)ccc2oc1=O`, -0.746. As for `CCOC(=O)C1/C(=N\O)CC(C)(O)C(C(=O)OCC)C1c1ccc(N(C)C)cc1` (centres undefined), the figure is 1.02. `O=C(CSc1nccn1-c1ncc(C(F)(F)F)cc1Cl)c1ccc(Br)cc1` had a z-score of -0.34. With `CC(C)Cc1nnc(NC(=O)CCC(=O)Nc2ccc(F)cc2)s1` the figure was 1.22; with `Cc1nnc(SCC(=O)N2CCC(C(=O)Nc3nccs3)CC2)n1Cc1ccccc1`, -0.23. As for `CC1(c2ccc3c(c2)OCO3)NC(=O)N(CC(=O)Nc2ccc(N3CCOCC3)cc2)C1=O` (centres undefined), the figure is -0.0366; as for `CC(=O)Nc1nc(NC(=O)/C=C/c2ccccc2)n(-c2ccccc2)n1`, -0.149.

For the compound `CC(C)[C@H](NC(=O)Nc1ccccc1F)C(=O)O`, the z-score is -0.164.

In turn, `CCCCCCNC(=O)CC(c1ccccc1)c1cc(Br)ccc1O` (centres undefined) had a z-score of -0.137.

As to `CC1(C)Cc2nc(NCCCO)c(C#N)cc2CO1`, the z-score was found to be 2.93. As for `CCOc1ccc(C(=O)NC(=S)Nc2ccc(NC(=O)c3ccco3)c(C)c2)cc1[N+](=O)[O-]`, the figure is -0.187. As for `Cc1cccc2cc(C(c3nnnn3C(C)(C)C)N(Cc3ccco3)CC3CCCO3)c(=O)[nH]c12` (centres undefined), the figure is -0.222; as for `Cc1ccc(C2=NNC(C(O)C(O)C(O)C(O)CO)S2)cc1` (centres undefined), 0.187.

Take `O=C(O)CN1C(=O)NC2NC(=O)NC21` (centres undefined): the z-score is -0.238. The compound `Oc1ccc(-c2nc3c4c(ncn3n2)-c2ccccc2CC42CCCC2)cc1` showed a z-score of -0.239. As for `Cc1cc(NC(=O)c2cc(-c3ccccc3)on2)n(-c2ccccc2)n1`, the figure is 0.353. As for `Cc1ccc(S(=O)(=O)N2CCN(c3nc(C)nc4sc5c(c34)CCC(C)C5)CC2)cc1` (centres undefined), the figure is 0.0765; as for `Cc1nc2nc(SCC(=O)c3ccc([N+](=O)[O-])cc3)[nH]c2cc1Br`, -0.471; as for `Cn1c(C(=O)N2CCN(Cc3ccccc3)CC2)cc2c(=O)n(C)c3ccccc3c21`, -0.786. With `O=C(Nc1cccc(F)c1)c1ccc(CSc2ccccc2)o1` the figure was -0.331. Compound `COc1ccc(NC(=O)CC(C)C)c([N+](=O)[O-])c1` registered a z-score of -0.11. As for `COc1cc(-c2nc3ccccc3s2)ccc1O`, the figure is -0.238; as for `N#Cc1ccc(OCC(=O)OCC(=O)NCCC2=CCCCC2)cc1`, -1. As for `CCC(=O)NC(c1cccs1)c1cc([N+](=O)[O-])c2cccnc2c1O` (centres undefined), the figure is -0.0253; as for `CC(C)NC(=O)c1ccccc1NC(=O)/C=C/c1ccc([N+](=O)[O-])cc1`, -0.137. `COc1cc(/C=N/n2cnc3scc(-c4cccs4)c3c2=O)cc(OC)c1OC` showed a z-score of -0.232.

`CCOc1ccc(NC(=O)c2ccc(CNc3c(NC4CCCCC4)c(=O)c3=O)cc2)cc1` came in with a z-score of 1.02. The compound `O=C(NC1CCCCCCC1)C1CCCN(S(=O)(=O)c2cnc[nH]2)C1` (centres undefined) displayed a z-score of -0.107. In turn, `O=C(NC(=S)N1CCN(C/C=C/c2ccccc2)CC1)c1c(F)cccc1F` gave a z-score of 1.73. As for `Cc1cc(C)c(C)c(S(=O)(=O)N2C(=S)NC(=O)C2CC(C)C)c1C` (centres undefined), the figure is 0.844; as for `O=[N+]([O-])/C(C(Cl)=C(Cl)Cl)=C(\Nc1ccc(F)cc1)n1cncn1`, -0.0258; as for `O=c1cc(-c2c(F)c(F)c(F)c(F)c2F)oc2ccccc12`, 0.222. Consider `CC(=O)NC(=S)Nc1ccccc1C(=O)Nc1ccccc1`, for which the z-score is -0.172. As for `CCn1cnc2scc(-c3ccccc3)c2c1=O`, the figure is -0.164; as for `Cc1cc(C)c2nc(SCCc3ccccc3)nc(C)c2c1`, -0.131. With `Clc1ncnc2scc(-c3ccccc3)c12` the figure was -0.029. As for `CCN1CCN(CCCNC(=O)Cn2cc3c(n2)CCCC3)CC1`, the figure is -0.235.
